Laboratory results reported in PubChem BioAssay (NCATS).
This list was built around the results that the source calls inconclusive (neither active nor inactive); the mix of calls is not that of the screen. A potency beside an inconclusive call is a rough fit, not a confirmed value. The source made the active and inactive calls. Calls come from the whole dose curve; as a rule, active = well fitted inhibition curve with a large enough effect; inconclusive = small, poorly fitted or top-dose-only effect; inactive = flat fitted curve, though single readings scatter. Where a SMILES comes first, the peptide text is derived from it. The star is where a group is joined. AFC = O=c1cc(C(F)(F)F)c2ccc(N*)cc2o1

Assay: P-glycoprotein substrates identified in KB-8-5-11 adenocarcinoma cell line, qHTS therapeutic library screen (AID 1346987); note: nearly all actives have a fitted effect of over 65% in size
Conditions: KB-8-5-11 (P-gp overexpressing) viability, CellTiter-Glo, 72 h; activity change, negative = cytotoxicity: at 44.5 µM (top of the series); series mostly up to 44.5 µM
Excerpt: The ATP-binding cassette transporters P-glycoprotein (P-gp) is known to limit brain penetration of many chemotherapy drugs. […] As such, we developed a high-throughput screen (HTS) to identify substrates of P-gp from a series of chemical libraries including the National Center for Advancing Translational Sciences Pharmaceutical Collection NPC, 2,816 compounds), testing a total of 10,804 compounds, most of which have known mechanisms of action. We used the CellTiter-Glo viability assay to test library compounds against the parental KB-3-1 human cervical adenocarcinoma cell line and the colchicine-selected sub-line KB-8-5-11 that over-expresses P-gp. KB-8-5-11 cells were also tested in the presence of a P-gp inhibitor (tariquidar) to assess reversability of transporter-mediated resistance. Of the tested compounds, a total of 90 P-gp substrates were identified including 55 newly identified P-gp substrates. Substrates were confirmed using an orthogonal killing assay against HEK-293 cells transfected with P-gp. As exemplars, we confirmed that […] (cyclin-dependent kinase inhibitor); AT9283, (Janus kinase 2/3 inhibitor); ispinesib (kinesin spindle protein inhibitor); gedatolisib (PKI-587, phosphoinositide 3-kinase/mammalian target of rampamycin inhibitor); GSK-690693 (AKT inhibitor); and KW-2478 (heat shock protein 90 inhibitor) were substrates , and direct ATPase stimulation was assessed. ABCG2 was also found to confer high levels of resistance to AT9283, GSK-690693 and gedatolisib, while ispinesib, AT7519 and KW-2478 were weaker substrates.
The HeLa derivative cell line, KB-3-1, and its colchicine-selected, P-gp-overexpressing subline, KB-8-5-11 were maintained in DMEM with 10% FCS and Pen/Strep with glutamine at 37 degree C in 5% CO2. For KB-8-5-11 cells, colchicine was added to the medium at a concentration of 100 ng/mL. HEK-293 cells transfected with empty vector (pcDNA) or vector containing human ABCB1 (MDR-19) or ABCG2 (R-5) have been described previously (Robey, Lin, Qiu, Chan & Bates, 2011) and were maintained in EMEM supplemented with 10% FCS, Pen/Strep and glutamine with 2 mg/ml G418 to select for the expression of the transporter. Cultures were confirmed to be free of mycoplasma infection using the MycoAlert Mycoplasma Detection Kit (Lonza, Walkersville, MD). For the screen, assay medium was identical to culture medium except for KB-8-5-11 where colchicine was excluded from the medium.
All cell lines were plated into 1536-well plates at 500 cells/well in 5 uL media. Compounds were then pinned in dose-response using a 1536-head pin tool (Kalypsis, San Diego, CA) and plates were incubated at 37 degree C in 5% CO2 for an additional 72 h. CellTiter-Glo reagent (Promega) was dispensed into the wells, incubated for 5 min and luminescence was read on a ViewLux instrument (Perkin-Elmer). Cytotoxic compounds were defined as those that yielded a curve class of -1.1, -1.2, -2.1, -2.2, -2.3, or -2.4, a maximum response of >50% and an AC50 of < 10 uM. Cherry-picked hits from screening analysis were tested with both the KB pair of cell lines, and the pcDNA (empty vector control) and MDR-19 (P-gp overexpressing) pair were tested, in the absence and presence of tariquidar.
% is set by controls: 0 for no effect and ±100 for the full control effect; potency is the fitted concentration of half-maximal effect; tags give direction and shape of the fitted curve.

Row | Structure (SMILES) | Potency | outcome | activity change, negative = cytotoxicity
1 | COC(=O)C1=C(C)NC(C)=C(C(=O)O[C@H]2CCN(Cc3ccccc3)C2)[C@H]1c1cccc([N+](=O)[O-])c1 | inconclusive: 6.51 µM [inhibitor, full curve] | – | –
2 | O=C(O)c1cn(C2CC2)c2cc(N3C[C@@H]4C[C@H]3CN4)c(F)cc2c1=O | – | inactive | –
3 | CCCCCCCC/C=C\CCCCCCCC(=O)OC[C@@H](O)[C@H]1OC[C@H](O)[C@H]1O | – | – | inactive: 6.97%
4 | c1cnc2cc3c(cc2n1)[C@@H]1CNC[C@H]3C1 | – | – | inactive: 0.729%
5 | CC1(C)O[C@@]2(C)CC[C@@H]1C[C@@H]2OC1OC(CO)C(O)C(O)C1O (stereo not given in full) | – | – | inactive: 5.01%
6 | Cc1cccc(C(=O)O)c1O | – | – | inactive: 2.04%
7 | COC(=O)C#Cc1ccc([N+](=O)[O-])cc1 | active: 18.4 µM | – | –
8 | Cn1cc(-c2c[nH]c3ncnc(N4CCOCC4)c23)cn1 | inconclusive: 18.4 µM [inhibitor, single point] | – | –
9 | Cn1c(O)c(N=NC(N)=S)c2ccccc21 | inconclusive: 8.2 µM [inhibitor, partial curve] | – | –
10 | CN(C)C(=O)Oc1cccc([N+](C)(C)C)c1 | – | – | inactive: 9.37%
11 | CC(C(=O)O)c1cccc(Oc2ccccc2)c1 (stereo not given) | – | – | inactive: -14.4% [at 17.3 µM]
12 | Cc1ncc(CO)c(CO)c1O | – | – | inactive: 1.75%
13 | O=[N+]([O-])c1cn2c(n1)OCC(OCc1ccc(OC(F)(F)F)cc1)C2 (stereo not given) | – | – | inactive: -12.2%
14 | CSc1ccc(C(=O)N[C@@H]2CCCC[C@@H]2NC(=O)CNC(=O)c2cc(C(F)(F)F)ccc2NC(=O)NC(C)C)cc1 | inconclusive: 29.1 µM [inhibitor, single point] | – | –
15 | Cc1cc(-c2ccc(/C=C3\SC(=Nc4ccc(Cl)c(C(=O)O)c4)NC3=O)o2)c([N+](=O)[O-])cc1C | – | inactive | –
16 | C=CC(C)(/C=C/c1ccc(O)cc1)CCC=C(C)C (stereo not given) | inconclusive: 23.1 µM [inhibitor, single point] | – | –
17 | CCCNCCOc1ccc(NC(=O)c2c[nH]c3c2C(=O)CCC3)cc1F | – | – | inactive: 1.49%
18 | CC(C)=CCC/C(C)=C/CO[C@@H]1O[C@H](CO)[C@@H](OC(=O)/C=C/c2ccc(O)cc2)[C@H](O[C@@H]2O[C@@H](C)[C@H](O)[C@@H](O)[C@H]2O)[C@H]1O | – | – | inactive: 9.22% [at 17.3 µM]
19 | CC(=O)N[C@@H](Cc1c[nH]c2ccccc12)C(=O)N[C@@H](CCC(=O)O)C(=O)N[C@@H](Cc1cnc[nH]1)C(=O)N[C@@H](CC(=O)O)C(=O)Nc1ccc2c(C(F)(F)F)cc(=O)oc2c1 (Ac-WEHD-{AFC}) | – | inactive | –
20 | C[C@@H]1O[C@@H](O[C@H]2[C@H](O[C@H]3CC[C@@]4(C)C(CC[C@]5(C)C4CC=C4C6CC(C)(C)CC[C@]6(C(=O)O[C@@H]6O[C@H](CO[C@@H]7O[C@H](CO)[C@@H](O[C@@H]8O[C@@H](C)[C@H](O)[C@@H](O)[C@H]8O)[C@H](O)[C@H]7O)[C@@H](O)[C@H](O)[C@H]6O)CC[C@]45C)[C@]3(C)CO)OC[C@H](O)[C@@H]2O)[C@H](O)[C@H](O)[C@H]1O (stereo not given in full) | – | inactive [at 9.29 µM] | –

Row | Structure (SMILES) | Potency | outcome | activity change, negative = cytotoxicity
21 | COC(=O)C1C(CC(C)=O)C=CC(O)C12Oc1cc(C)cc(O)c1C2=O (stereo not given) | – | – | inactive: 9.55%
22 | CCN(CC)CCNC(=O)COc1ccc(Cl)cc1 | – | – | inactive: -1.37%
23 | O=C(O)Cc1ccc2oc(-c3ccc(NC(=O)/C=C/c4ccc(Br)cc4)c(F)c3)nc2c1 | – | – | inactive: -7.12%
24 | CC(CN1c2ccccc2Sc2cccnc21)N(C)C (stereo not given) | inconclusive: 29.1 µM [inhibitor, single point] | – | –
25 | Cl/C(=C\n1cncn1)c1ccc(Cl)cc1Cl | inconclusive: 18.4 µM [inhibitor, single point] | – | –
26 | CCCC(=O)O[C@]1(C(=O)COC(=O)CC)[C@@H](C)C[C@H]2[C@@H]3CCC4=CC(=O)C=C[C@]4(C)[C@@]3(F)[C@@H](O)C[C@@]21C | – | – | inactive: -16.2%
27 | NC(=O)Nc1cc(-c2cccc(F)c2)sc1C(=O)NC1CCCNC1 (stereo not given) | active: 8.2 µM | – | –
28 | CC(C)=C1CC2[C@](C)(CC[C@@H](OC(=O)C3(C)OC3C)[C@@]2(C)O)CC1=O (stereo not given in full) | – | inactive | –
29 | O=C(/C=C/c1ccc2ccccc2n1)c1ccncc1 | inconclusive: 29.1 µM [inhibitor, single point] | – | –
30 | CC[C@@H]1[C@H]2CCCCN3C(=O)C[C@H]([C@@H]4[C@H]1OC(=O)[C@H]4C)[C@@H]23 | – | – | inactive: 6.73%
31 | Nc1cc(Cl)c(NC2=NCCN2)c(Cl)c1 | – | – | inactive: 0.601%
32 | O=c1cc(-c2ccc(O)cc2)oc2cc(OC3OC(CO)C(O)C(O)C3O)c(C3OC(CO)C(O)C(O)C3O)c(O)c12 (stereo not given) | – | – | inactive: -12.6%
33 | CCN(CC)C(=S)S | – | – | inactive: -8.04%
34 | O=S(=O)(c1cccc2c(I)cccc12)N1CCCNCC1 | inconclusive: 29.1 µM [inhibitor, single point] | – | –
35 | C[C@@H](Oc1cc(-n2cnc3ccc(OC4CCN(C)CC4)cc32)sc1C(N)=O)c1ccccc1Cl | active: 0.461 µM | – | –
36 | C[C@@H]1O[C@@H](O[C@H]2[C@H](O[C@H]3[C@H](O)[C@@H](C(=O)O)O[C@@H](O[C@H]4CC[C@@]5(C)C(CC[C@]6(C)C5CC[C@]57OC[C@@]8(CCC(C)(C)CC85)[C@H](O)C[C@]76C)C4(C)C)[C@@H]3O[C@@H]3O[C@H](CO)[C@@H](O[C@@H]4OC[C@@H](O)[C@H](O)[C@H]4O)[C@H](O)[C@H]3O)O[C@H](CO)[C@H](O)[C@@H]2O)[C@H](O)[C@H](O)[C@H]1O (stereo not given in full) | – | – | inactive: 2.43% [at 9.29 µM]
37 | COCc1c(-c2ccc(NC(=O)Nc3cc(C(F)(F)F)ccc3F)c(F)c2)c2c(N)ncnn2c1CN1CCOCC1 | inconclusive: 18.4 µM [inhibitor, single point] | – | –
38 | COc1ccc2c(c1)[C@@H]1C[C@]1(C(=O)N1[C@@H]3CC[C@H]1CN(C)C3)Cn1c-2c(C2CCCCC2)c2ccc(C(=O)NS(=O)(=O)N(C)C)cc21 | inconclusive: 29.1 µM [inhibitor, single point] | – | –
39 | CCC[C@@H]1C[C@@H](C(=O)N[C@@H]([C@H]2O[C@H](SC)[C@H](O)[C@@H](O)[C@H]2O)[C@H](C)Cl)N(C)C1 | – | – | inactive: 1.83%
40 | O=Nc1c(-c2c(O)[nH]c3ccc(F)cc23)[nH]c2ccccc12 | inconclusive: 29.1 µM [inhibitor, single point] | – | –
